The supplement of paper PMC12217912
The other results are listed elsewhere or left out. The full chains were built here from the parent and the listed change. Inactive controls read about 0.05.

B1: TEV protease; numbered along this chain (parent)
chain: MGESLFKGPRDYNPISSSICHLTNESDGHTTSLYGIGFGPFIITNKHLFRRNNGTLVVQSLHGVFKVKDTTTLQQHLVDGRDMIIIRMPKDFPPFPQKLKFREPQREERICLVTTNFQTKSMSSMVSDTSCTFPSGDGIFWKHWIQTKDGQCGSPLVSTRDGFIVGIHSASNFTNTNNYFTSVPKNFMELLTNQEAQQWVSGWRLNADSVLWGGHKVFMVKPEEPFQPVKEATQL

Variants of: B1
Test: raw area under fraction-flipped curve 0-4 h after induction (AUC4h, not background-subtracted), DNA-recorder readout of cleavage of the substrate (dimensionless); higher = more cleavage of the substrate by the protease variant
Conditions: temperature: 34 °C; time window: 0-4 h after rhamnose induction
Experimental: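 In vivo DNA recorder in E. coli TOP10(DE3) ΔrhaA at 34 °C. Each TEVp single-site mutant (parent TEVp 0) is paired with a single-site variant of the 7-mer TEVs (canonical ENLYFQ|S). The substrate sits between flexible linkers in a Bxb1-sfGFP-TEVs-SsrA fusion, so cleavage stabilises Bxb1 and speeds flipping of a recombination array, read by NGS. The value is the raw area under the fraction-flipped curve over 0-4 h after rhamnose induction (AUC4h), with ≥20 reads per time point. It is not background-subtracted; inactive controls average about 0.047.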
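Note: Bxb1 expression induced with 0.2% (w/v) L-rhamnose at OD600 near 0.5, cultures sampled hourly, flipped fraction per protease–substrate barcode pair counted by paired-end Illumina sequencing.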

Variant	area with substrate ENLYFAS	area with substrate ENLYFCS	area with substrate ENLYFDS	area with substrate ENLYFES	area with substrate ENLYFFS	area with substrate ENLYFGS	area with substrate ENLYFIS	area with substrate ENLYFKS	area with substrate ENLYFMS	area with substrate ENLYFNS	area with substrate ENLYFPS	area with substrate ENLYFRS	area with substrate ENLYFTS	area with substrate ENLYFVS	area with substrate ENLYFWS	area with substrate ENLYFSS	area with substrate ENLYFHS	area with substrate ENLYFYS	area with substrate ENLYFLS
S26Y	0.0655	0.0621	0.0735	0.0604	0.0675	0.0663	0.0629	0.0685	0.0618	0.0565	0.0679	0.0608	0.0566	0.131	0.0558				
T23D	0.065	0.0327		0.0668	0.0592		0.0518		0.0698	0.0566	0.0569			0.0534	0.0491	0.0673			
L73K	0.0612	0.0464			0.0611		0.0491	0.0426			0.0486	0.0562	0.0537		0.0626	0.0655	0.0543	0.0365	
L73H	0.0623	0.0453		0.0465			0.0545	0.0613	0.0519	0.0373		0.0507	0.0185		0.046		0.0596		
D69Y	0.0629		0.0547	0.065				0.059	0.0606	0.0593	0.0629		0.061						
E25M	0.0624		0.0622	0.0615	0.0843	0.0572	0.0544	0.0677	0.0724	0.0597	0.0655	0.0548	0.0683	0.0639	0.062	0.0475	0.0634		0.0542
E25F	0.0636	0.0507	0.0315	0.0843	0.0586		0.0428	0.06		0.0646	0.0538		0.0586	0.0413		0.0571	0.0486	0.0723	0.069
D11C	0.0425	0.0502	0.0679	0.0618	0.0757	0.0659	0.0561	0.0587	0.0772	0.0465	0.0544	0.0777	0.0562	0.0534		0.0671		0.0551	0.0611
G37Y	0.0377			0.0472	0.0494		0.0428		0.0479	0.0575		0.0365			0.0609		0.0396	0.0603	0.021
N52E	0.0658	0.0726		0.0609	0.0758		0.06	0.0802	0.0551			0.053			0.0578	0.0336		0.0635	
N52L	0.0502	0.0587		0.0646	0.0753		0.0585	0.0665	0.0589	0.0665	0.0618	0.0764		0.0641		0.0641	0.0643	0.0593	0.105
N52A	0.063		0.0766	0.0644	0.0472		0.0556	0.0701	0.053	0.0594	0.0596	0.0544	0.0558			0.0641		0.0601	0.0503
Q59D	0.0687		0.0593		0.0764				0.075				0.0646	0.0686					
